Reference: US20210292423A1 (published 2021)

Legend:
[1] = target: T1, human CD123 (IL3RA) on cells (human, UniProt P26951 19-378); experiment: cell-based or functional assay
T1 sequence: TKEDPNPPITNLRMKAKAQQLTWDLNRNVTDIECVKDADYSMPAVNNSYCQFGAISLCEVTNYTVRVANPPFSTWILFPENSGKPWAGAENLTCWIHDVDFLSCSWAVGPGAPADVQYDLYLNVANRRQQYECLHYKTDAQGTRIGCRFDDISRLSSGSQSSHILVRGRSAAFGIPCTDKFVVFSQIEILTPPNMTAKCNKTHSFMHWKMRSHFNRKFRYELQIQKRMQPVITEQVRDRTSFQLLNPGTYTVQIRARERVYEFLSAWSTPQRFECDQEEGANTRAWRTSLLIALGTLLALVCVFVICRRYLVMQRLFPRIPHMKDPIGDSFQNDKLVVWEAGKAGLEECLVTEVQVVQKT

[2] = target: T2, human CD3ε/δ-Fc fusion protein (soluble recombinant CD3ε/δ complex) (human, UniProt P04234 22-105); experiment: SPR Biacore
T2 construct: also called huCD3ε/δ; huCD3; not shown: hinge, CH2, CH3 of human IgG with tag

[3] = target: T3, human CD123 Strep-II tagged Fc-fusion protein (human); experiment: SPR Biacore
T3 construct: also called human CD123-Fc; recombinant CD123

- Kd [2]: 13.9 nM
- Kd [3]: 1.7 nM
B1: CODV-Fab hz20G6x7G3-TL4 antibody-like binding protein (bispecific antibody, human IgG4, kappa)
light: DFVMTQSPSSLTVTAGEKVTMSCKSSQSLLNSGNQKNYLTWYLQKPGQPPKLLIYWASTRESGVPDRFTGSGSGTDFTLTISSVQAEDLAVYYCQNDYSYPYTFGGGTKLEIKGQPKAAPDIVMTQTPLSLSVTPGQPASISCKSSQSLVHNNGNTYLSWYLQKPGQSPQSLIYKVSNRFSGVPDRFSGSGSGTDFTLKISRVEAEDVGVYYCGQGTQYPFTFGSGTKVEIKTKGPSRTVAAPSVFIFPPSDEQLKSGTASVVCLLNNFYPREAKVQWKVDNALQSGNSQESVTEQDSKDSTYSLSSTLTLSKADYEKHKVYACEVTHQGLSSPVTKSFNRGEC[human IgG4 Fc with S228P L235E H435R Y436F (EU numbers) omitted here]
heavy: QVQLVESGGGVVQPGRSLRLSCAASGFTFTKAWMHWVRQAPGKQLEWVAQIKDKSNSYATYYADSVKGRFTISRDDSKNTLYLQMNSLRAEDTAVYYCRGVYYALSPFDYWGQGTLVTVSSSEVQLQQSGPELVKPGASVKMSCKASGYTFTDYYMKWVKQSHGKSLEWIGDIIPSNGATFYNQKFKGKATLTVDRSSSTAYMHLNSLTSEDSAVYYCTRSHLLRASWFAYWGQGTLVTVSARTASTKGPSVFPLAPCSRSTSESTAALGCLVKDYFPEPVTVSWNSGALTSGVHTFPAVLQSSGLYSLSSVVTVPSSSLGTKTYTCNVDHKPSNTKVDKRV[human IgG4 Fc with changes omitted here]
notes: one chain of formula IV and one of formula III, IgG4 backbone; also called CODV-Fab-TL4 hz20G6x7G3; Fc-tagged variant TL4: hz20G6 × 7G3 CODV-Fab-TL4
- Cytotoxic assay (THP cells) EC50 [pM] [1]: 16.7 pM
